# Assay results published in PubChem BioAssay (Tox21).
# “And” between values parts separate entries of the source, which are not always exact repeats. Equal entries are not always repeated. Inconclusive means that the source gave no clear call. Such entries were picked first, then a sample of the others. For part of these data: Potencies beside an inconclusive call are fits to weak or partial responses and may not hold up. The source made the active and inactive calls. Unless noted, calls come from the whole dose curve; as a rule, active = well fitted curve in the direction sought with a large enough effect in the repeat runs; inconclusive = weak or mixed curves; inactive = no such curve, though single readings can be large; an effect the other way counts as inactive or inconclusive.
# Tests used:
# [1] = qHTS assay to identify small molecule antagonists of the estrogen related receptor (ERR) signaling pathway from Tox21 library - cell viability counter screen (AID 1224834); note: nearly all actives have a fitted effect of over 30% in size; note: potency is the fitted concentration of half-maximal effect
# Outline: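 CellTiter-Fluor fluorescence, read after 30 min at 37 C, measures viability of ERR cells. Cells plated at 2,000/well and incubated 6 h before pin-tool compound addition, then exposed 17.5 hours at 37 C.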
# [2] = target: Luciferin 4-monooxygenase (Photinus pyralis) (UniProt P08659); experiment: qHTS assay to identify small molecule inhibitors of firefly luciferase (AID 1224835); note: nearly all actives have a fitted effect of over 25% in size; note: potency is the fitted concentration of half-maximal effect
# Outline: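 Quantitative HTS format; KM concentrations of both substrates. Purified P. pyralis FLuc activity quantified from luminescence images.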
# [3] = qHTS assay to identify small molecule antagonists of the constitutive androstane receptor (CAR) signaling pathway - cell viability counter screen (AID 1224837); note: potency is the fitted concentration of half-maximal effect; nearly all actives have a fitted effect of over 45% in size
# Outline: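 Cytotoxicity counter-screen: CellTiter-Fluor fluorescence after 23 h compound exposure (15-point qHTS) in double-stable HepG2-CYP2B6-hCAR cells, with 50 nM CITCO added.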
# [4] = qHTS RealTime-Glo MT Cell Viability Assay in HEK293 cells - 32 hour (AID 1224868); note: potency is the fitted concentration of half-maximal effect; nearly all actives have a fitted effect of over 50% in size
# Outline: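 Viability tracked continuously by luminescence as live cells reduce a prosubstrate for NanoLuc; HEK293 cells preincubated 5 h, compound-treated at 37 C, and read at 0, 8, 16, 24, 32 and 40 h.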
# [5] = qHTS assay to identify small molecule agonists of the constitutive androstane receptor (CAR) signaling pathway - cell viability counter screen (AID 1224836); note: potency is the fitted concentration of half-maximal effect; nearly all actives have a fitted effect of over 45% in size
# Outline: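 HepG2-CYP2B6-hCAR, 2500 cells/well, 4 h pre-incubation; cpd 15 conc + PK11195 0.75 uM final; 23 h, 37 C/5% CO2; CellTiter-Fluor, fluorescence.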
# [6] = qHTS assay to identify small molecule antagonists of the estrogen related receptor signaling pathway with the pleiotropic PPARgamma coactivator (PGC) from Tox21 10K library - cell viability counter screen (AID 1224840; active = well fitted cell-killing curve with a large enough effect in the repeat runs, not every such curve was filed as active; inconclusive = weak or mixed curves, or effect the other way; inactive = no such curve, though single readings can be large or run the other way; note: potency is the fitted concentration of half-maximal effect; nearly all actives have a fitted effect of over 40% in size)
# Outline: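 Counter-screen for cytotoxicity: after 17.5 h compound exposure at 37 C, CellTiter-Fluor reagent added to PGC/ERR cells for 30 min and fluorescence read. Cells were seeded at 2,000 per well 6 h before dosing.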
# [7] = target: Thyrotropin receptor (Homo sapiens) (UniProt P16473); experiment: qHTS assay to identify small molecule agonists of the thyroid stimulating hormone receptor (TSHR) signaling pathway (AID 1224843; calls by dose curve; note: nearly all actives have a fitted effect of over 45% in size; note: potency is the fitted concentration of half-maximal effect; for activation: % is set by controls: 0 for no effect and ±100 for the full control effect); conditions: TSHR-HEK293 cells, cAMP HTRF, agonist mode, 30 min; activation: at 92.4 µM (top of the series) unless noted
# Outline: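 Compounds are titrated over 15 concentrations, in triplicate, onto TSHR-HEK293 cells seeded at 800/well. Plates sit 30 min at room temperature before cAMP-d2 and anti-cAMP cryptate are added; signal is read after a further hour.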
# [8] = qHTS assay to identify small molecule agonists of the hypoxia (HIF-1) signaling pathway - cell viability counter screen (AID 1224844; calls by dose curve; note: potency is the fitted concentration of half-maximal effect; nearly all actives have a fitted effect of over 50% in size)
# Outline: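 Cytotoxicity measured by CellTiter-Glo ATP luminescence in the wells also read for beta-lactamase signal. Cells were HRE-bla ME-180 (2,000/well, 0.5% dialyzed FBS), exposed to compounds for 17 h at 37C.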
# [9] = qHTS assay to identify small molecule agonists of the hypoxia (HIF-1) signaling pathway (AID 1224846; active = well fitted activation curve with a large enough effect in the signal ratio in the repeat runs, not every such curve was filed as active; inconclusive = weak or mixed curves; the % refers to the signal ratio; note: potency is the fitted concentration of half-maximal effect); conditions: HRE-bla ME-180 cells, beta-lactamase ratio, 17 h; activation: at 76.8 µM (top of the series) unless noted
# Outline: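 Compounds added to ME-180 cells carrying hypoxia-response-element beta-lactamase reporter (0.5% dialyzed FBS, 5 h preplating), 17 h at 37C; agonist activity detected by CCF4-AM B/G FRET read-out.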
# [10] = qHTS assay to identify small molecule agonists of H2AX (AID 1224845; active = well fitted activation curve with a large enough effect in the signal ratio in the repeat runs, not every such curve was filed as active; inconclusive = weak or mixed curves; the % refers to the signal ratio; note: potency is the fitted concentration of half-maximal effect; for activation (H2AX phosphorylation): % is set by controls: 0 for no effect and ±100 for the full control effect); conditions: CHO-K1 phospho-H2AX Ser139 HTRF, 3 h; activation (H2AX phosphorylation): at 154 µM (top of the series) unless noted
# Outline: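 Wild-type CHO-K1 cells plated overnight, then exposed 3 hr at 37C to compounds at 15 concentrations (0.76% DMSO). Lysed, then HTRF anti-pH2AX(S139)-cryptate/anti-H2AX-d2 detection after 24 hr at room temperature; emissions 665 and 620 nm.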
# [11] = qHTS assay to identify small molecule agonists of the estrogen related receptor signaling pathway with the pleiotropic PPARgamma coactivator (PGC) (AID 1224823); note: % is set by controls: 0 for no effect and ±100 for the full control effect
# Outline: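 Luminescence from One-Glo reagent (30 min, room temperature) was read after 18 h compound treatment at 37 C of PGC/ERR cells plated 6 h beforehand; compounds delivered in DMSO by pin tool.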
# [12] = qHTS assay to identify small molecule agonists of H2AX - cell viability counter screen (AID 1224847; calls by dose curve; note: potency is the fitted concentration of half-maximal effect; nearly all actives have a fitted effect of over 30% in size)
# Outline: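 Cells plated first: CHO-K1, 1000 per well in 10% FBS medium, incubated overnight at 37C. Then 15-point compound titration added (final DMSO 0.76%) for 3 hr. Finally CellTiter-Glo added and luminescence read.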
# [13] = qHTS RealTime-Glo MT Cell Viability Assay in HepG2 cells - 24 hour (AID 1224867); note: potency is the fitted concentration of half-maximal effect; nearly all actives have a fitted effect of over 50% in size
# Outline: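 Viability was tracked continuously by NanoLuc luminescence from prosubstrate reduced by living HepG2 cells, at successive time points over 40 h of compound exposure. Cells with reagent were preincubated 5 h at 37 °C before compound addition.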
# [14] = qHTS assay to identify small molecule antagonists of the estrogen related receptor (ERR) signaling pathway from Tox21 library (AID 1224848); note: potency is the fitted concentration of half-maximal effect; nearly all actives have a fitted effect of over 50% in size
# Outline: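 First, 2,000 ERR cells per well were plated and held 6 h at 37 C/5% CO2. Next, compounds in DMSO were pinned in and left 18 h at 37 C. Finally, ONE-Glo was added and luminescence read after 30 min at room temperature.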
# [15] = qHTS assay to identify small molecule agonists of the estrogen related receptor (ERR) signaling pathway from Tox21 library (AID 1224849; calls by dose curve; note: % is set by controls: 0 for no effect and ±100 for the full control effect; nearly all actives have a fitted effect of over 15% in size); conditions: ERR reporter cell line, ONE-Glo luciferase, 18 h; at 92.4 µM (top of the series) unless noted
# Outline: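 Luminescent agonist read-out (One-Glo, 30-minute room-temperature incubation) following 18-hour compound treatment at 37 C of the ERR cell line, which had been plated 6 hours before dosing.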
# Tags give direction and shape of the fitted curve or compound fluorescence and quenching.
# UniProt P16473, sequence (P16473 whole entry, looked up): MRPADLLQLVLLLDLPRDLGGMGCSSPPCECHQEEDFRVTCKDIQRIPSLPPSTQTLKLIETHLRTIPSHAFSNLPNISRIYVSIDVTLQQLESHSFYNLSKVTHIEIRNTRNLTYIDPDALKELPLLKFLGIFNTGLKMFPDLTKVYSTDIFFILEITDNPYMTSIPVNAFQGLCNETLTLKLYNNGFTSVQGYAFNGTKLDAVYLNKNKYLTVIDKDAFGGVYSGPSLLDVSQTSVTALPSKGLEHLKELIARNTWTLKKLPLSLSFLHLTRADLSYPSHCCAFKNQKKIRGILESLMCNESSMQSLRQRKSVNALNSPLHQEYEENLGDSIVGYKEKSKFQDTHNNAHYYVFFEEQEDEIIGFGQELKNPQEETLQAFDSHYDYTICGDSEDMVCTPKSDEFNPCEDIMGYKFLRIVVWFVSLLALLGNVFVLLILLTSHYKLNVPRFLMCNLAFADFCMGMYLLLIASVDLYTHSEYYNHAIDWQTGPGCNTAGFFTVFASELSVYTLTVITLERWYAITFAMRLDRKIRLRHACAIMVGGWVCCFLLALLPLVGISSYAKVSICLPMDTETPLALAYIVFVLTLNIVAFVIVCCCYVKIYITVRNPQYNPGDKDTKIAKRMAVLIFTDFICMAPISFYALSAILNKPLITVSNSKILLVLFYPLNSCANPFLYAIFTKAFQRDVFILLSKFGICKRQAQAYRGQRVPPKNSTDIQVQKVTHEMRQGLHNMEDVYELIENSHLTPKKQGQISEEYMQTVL
# UniProt P08659, sequence (P08659 whole entry, looked up): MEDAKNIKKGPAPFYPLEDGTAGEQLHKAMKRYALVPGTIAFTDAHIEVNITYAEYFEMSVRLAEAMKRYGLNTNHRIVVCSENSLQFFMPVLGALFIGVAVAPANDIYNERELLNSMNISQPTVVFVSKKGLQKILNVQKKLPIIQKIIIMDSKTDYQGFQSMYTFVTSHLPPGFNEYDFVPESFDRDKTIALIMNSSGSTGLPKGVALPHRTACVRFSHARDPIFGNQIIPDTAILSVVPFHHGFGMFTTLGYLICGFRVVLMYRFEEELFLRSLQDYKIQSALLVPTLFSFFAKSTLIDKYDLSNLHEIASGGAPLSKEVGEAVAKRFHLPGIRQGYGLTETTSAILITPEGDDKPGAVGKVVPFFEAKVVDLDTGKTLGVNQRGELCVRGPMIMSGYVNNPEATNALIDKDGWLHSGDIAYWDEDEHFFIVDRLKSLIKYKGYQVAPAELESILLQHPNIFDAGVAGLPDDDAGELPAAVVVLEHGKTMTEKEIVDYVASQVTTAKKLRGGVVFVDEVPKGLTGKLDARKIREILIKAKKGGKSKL
compound,measurement,setting,value
CCCCc1nc2cccnc2n1Cc1ccc(-c2ccccc2-c2nnn[nH]2)cc1,Potency,[1],"inconclusive: 34.4 µM [cytotoxic, partial curve]"
same,Potency,[2],"inconclusive: 63.3 µM [inhibitor, partial curve]"
same,Potency,[3],"inconclusive: 61.1 µM [cytotoxic, partial curve, poor fit]"
same,Potency,[4],"inconclusive: 13.8 µM [cytotoxic, full curve]"
Nc1nc(=S)c2[nH]cnc2[nH]1,Potency,[1],"active: 11.9 µM and active: 4.33 µM and inconclusive: 5.96 µM [cytotoxic, full curve]"
same,Potency,[2],"inconclusive: 87.1 µM [inhibitor, single point]"
same,Potency,[5],"inconclusive: 13.3 µM [cytotoxic, full curve] and inconclusive: 6.86 µM [cytotoxic, full curve] and inconclusive: 5.96 µM [cytotoxic, full curve]"
same,Potency,[3],"inconclusive: 4.73 µM [cytotoxic, full curve]"
same,Potency,[6],"inconclusive: 8.42 µM [cytotoxic, full curve] and inconclusive: 4.86 µM [cytotoxic, full curve]"
same,activation,[7],inconclusive: -54.1%
same,Potency,[8],"inconclusive: 21.3 µM [cytotoxic, partial curve] and inconclusive: 24.5 µM [cytotoxic, full curve] and inconclusive: 23.9 µM [cytotoxic, partial curve, poor fit]"
same,Potency,[9],inconclusive: 53.5 µM [single point]
same,Potency,[4],"active: 23.9 µM and active: 19.5 µM and inconclusive: 26.8 µM [cytotoxic, single point]"
Cc1ccc(N)cc1S(=O)(=O)O,Potency,[1],inactive
same,Potency,[2],inactive
same,Potency,[7],inactive
same,Potency,[10],inactive
CCCC1O[C@@H]2C[C@H]3[C@@H]4CCC5=CC(=O)C=C[C@]5(C)[C@H]4[C@@H](O)C[C@]3(C)[C@]2(C(=O)CO)O1 (some centres undefined),Potency,[11],inactive
same,Potency,[1],"inconclusive: 61.2 µM [cytotoxic, partial curve] and inconclusive: 61.1 µM [cytotoxic, partial curve]"
same,Potency,[12],inconclusive: 113 µM [cytotoxic]
same,Potency,[4],active: 24.6 µM and active: 43.6 µM
O=C1Nc2ccc(Cl)cc2[C@@](C#CC2CC2)(C(F)(F)F)O1,Potency,[1],"inconclusive: 33.5 µM [cytotoxic, single point]"
same,Potency,[2],inactive
same,Potency,[7],"inconclusive: 11.9 µM [activator, partial curve]"
same,Potency,[8],"inconclusive: 26.8 µM [cytotoxic, single point]"
same,Potency,[9],inconclusive: 26.8 µM [single point]
same,Potency,[13],"inconclusive: 26.8 µM [falling, single point]"
same,Potency,[4],active: 23.9 µM
CCCCCCCCCCCCCC[N+](C)(C)C,Potency,[1],"inconclusive: 11.9 µM [cytotoxic, partial curve]"
same,Potency,[2],"inconclusive: 70.9 µM [inhibitor, partial curve] and inconclusive: 34.7 µM [inhibitor, single point]"
same,Potency,[5],"inconclusive: 24.3 µM [cytotoxic, partial curve] and inconclusive: 10.6 µM [cytotoxic, full curve, poor fit]"
same,Potency,[3],"active: 13.2 µM and active: 27.3 µM and inconclusive: 23.7 µM [cytotoxic, partial curve]"
same,Potency,[10],"inconclusive: 109 µM [rising, partial curve, poor fit]"
same,Potency,[12],"inconclusive: 61.9 µM [cytotoxic, partial curve, poor fit]"
same,Potency,[14],active: 2.64 µM and active: 4.32 µM and active: 8.41 µM
same,Potency,[4],active: 9.44 µM and active: 12.3 µM and active: 2.13 µM
COCCc1ccc(OCC(O)CNC(C)C)cc1 (centres undefined),Potency,[11],inactive
same,Potency,[14],"inconclusive: 61.1 µM [inhibitor, partial curve, poor fit]"
CCCCc1cc2ccccc2c(OCCN(C)C)n1,Potency,[1],inactive
same,Potency,[2],inactive
same,Potency,[8],"inconclusive: 21.3 µM [cytotoxic, partial curve]"
same,Potency,[10],inactive
same,Potency,[4],"inconclusive: 23.9 µM [cytotoxic, single point]"
Cc1cc(=O)oc2cc(N(C)C)ccc12,Potency,[1],"inconclusive: 43.3 µM [rising, partial curve]"
same,Potency,[2],"inconclusive: 63.3 µM [inhibitor, partial curve]"
same,Potency,[5],"inconclusive: 54.5 µM [rising, partial curve]"
same,Potency,[3],"inconclusive: 48.6 µM [rising, partial curve]"
same,Potency,[6],"inconclusive: 68.6 µM [rising, single point]"
same,Potency,[8],"inconclusive: 49 µM [cytotoxic, partial curve, poor fit]"
same,Potency,[10],inactive
same,Potency,[9],active: 49 µM
same,"activity change, positive = activation",[15],inconclusive: 22.9%
same,Potency,[13],"inconclusive: 43.6 µM [falling, partial curve, poor fit]"
same,Potency,[4],"inconclusive: 61.6 µM [cytotoxic, single point]"
